Consider 24 molecules from paper PMC4336329 (PLoS ONE, 2015).

The structures appear in SMILES notation. Among all 310,000 compounds or so, about 14,000 (4.5%) showed an effect of 50% or more. The effect is printed as a negative number. This is one part of the list.
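Also: peak tail current of the secondary pulse compared with the same well before compound.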

For the assay, the target named is human ether-à-go-go-related gene (hERG) potassium channel (human, UniProt Q12809). Description: primary screen, population patch clamp on CHO cells stably expressing hERG.
human ether-à-go-go-related gene (hERG) potassium channel, sequence (Q12809 whole entry, looked up): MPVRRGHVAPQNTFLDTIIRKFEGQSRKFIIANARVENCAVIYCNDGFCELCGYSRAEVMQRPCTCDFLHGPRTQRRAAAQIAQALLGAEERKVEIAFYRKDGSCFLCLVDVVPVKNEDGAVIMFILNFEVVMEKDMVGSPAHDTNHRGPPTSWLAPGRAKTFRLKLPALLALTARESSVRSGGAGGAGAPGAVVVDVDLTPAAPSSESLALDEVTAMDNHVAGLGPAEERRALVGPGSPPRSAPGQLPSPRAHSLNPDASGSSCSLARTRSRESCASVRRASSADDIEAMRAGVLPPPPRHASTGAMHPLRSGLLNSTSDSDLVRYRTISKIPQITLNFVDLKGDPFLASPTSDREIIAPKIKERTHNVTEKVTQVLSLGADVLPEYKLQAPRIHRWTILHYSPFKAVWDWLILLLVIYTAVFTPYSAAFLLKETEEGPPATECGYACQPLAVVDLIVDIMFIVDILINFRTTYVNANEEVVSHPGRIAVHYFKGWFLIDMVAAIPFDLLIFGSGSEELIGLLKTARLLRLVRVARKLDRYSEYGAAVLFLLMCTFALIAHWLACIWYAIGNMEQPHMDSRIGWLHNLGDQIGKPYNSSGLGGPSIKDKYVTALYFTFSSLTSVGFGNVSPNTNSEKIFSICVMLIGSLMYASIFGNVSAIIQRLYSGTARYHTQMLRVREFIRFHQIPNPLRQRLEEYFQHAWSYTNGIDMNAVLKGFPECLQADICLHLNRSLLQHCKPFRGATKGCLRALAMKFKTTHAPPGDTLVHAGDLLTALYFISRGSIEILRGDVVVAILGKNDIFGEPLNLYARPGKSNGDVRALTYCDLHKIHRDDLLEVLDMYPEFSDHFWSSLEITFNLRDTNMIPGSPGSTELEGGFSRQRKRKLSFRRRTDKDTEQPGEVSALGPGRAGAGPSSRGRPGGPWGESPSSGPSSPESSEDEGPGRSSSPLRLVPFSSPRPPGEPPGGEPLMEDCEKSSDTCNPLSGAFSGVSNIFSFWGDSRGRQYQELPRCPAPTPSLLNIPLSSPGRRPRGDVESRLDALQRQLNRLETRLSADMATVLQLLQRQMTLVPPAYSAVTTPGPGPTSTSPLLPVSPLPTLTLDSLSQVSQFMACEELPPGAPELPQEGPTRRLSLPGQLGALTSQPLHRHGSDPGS
With `Cc1cccc(C(=O)Oc2cccc3c(O)cccc23)c1`, the “hERG current change (%, negative = inhibition) at 10uM” value worked out at 19.2%.
Take `Cc1ccccc1-c1ccc(C(=O)Nc2cccc(F)c2)o1`: the “hERG current change (%, negative = inhibition) at 10uM” value is given as -18.3%.
In the case of `COc1ccc(NC(=O)c2cc(-c3cc(Cl)ccc3O)n[nH]2)c(OC)c1` it was 18.5%; in that of `Cc1ccc(S(=O)(=O)c2nnn3c2nc(N2CCOCC2)c2ccccc23)cc1`, -2.95%; in that of `O=C(O)C1C2C=CC(C2)C1C(=O)NCCCc1ccccc1` (stereo not drawn), 1.48%.
The value for `COc1ccc(Cl)cc1C(=O)Nc1cc(=O)n(C)c(=O)n1C` was -3.64%.
With `CC(NC(=O)c1ccc(N2CCCC2)c([N+](=O)[O-])c1)c1ccc(S(N)(=O)=O)cc1` (stereo not drawn), the “hERG current change (%, negative = inhibition) at 10uM” value is on record as -5.02%.
With `O=C(Nc1cnn(Cc2ccc(F)cc2)c1)c1cc2nc(-c3ccco3)cc(C(F)(F)F)n2n1`, the “hERG current change (%, negative = inhibition) at 10uM” value turned out to be 17.5%.
The value for `COc1cccc(NC(=O)CN(C)C(=O)c2c(-c3c(F)cccc3Cl)noc2C)c1` was 0.173%.
In the case of `CCCCc1cc(=O)oc2cc(OCC(=O)NCc3ccccn3)c(Cl)cc12` it was 18%; in that of `CCOC(=O)C1=C(COC(=O)CNC(=O)c2ccc(C)cc2)NC(=O)NC1C` (stereo not drawn), 23.4%; in that of `Cc1cc(CSc2ccccc2)ccc1NC(=O)c1ccc(C)c([N+](=O)[O-])c1`, 11.6%.
On to `c1cnc2ccc(C(c3nnnn3C3CCCC3)N3CCN4CCCC4C3)cc2c1` (stereo not drawn), for which the “hERG current change (%, negative = inhibition) at 10uM” value is on record as -45.2%.
The value for `COc1ccc(-c2cn(CCCOCc3ccccc3)nn2)cc1` was -36.6%.
For the molecule `CCC(CC)C(=O)Nc1cc(C(=O)OC)ccc1C(=O)OC`, the “hERG current change (%, negative = inhibition) at 10uM” value was -15.4%.
In the case of `Cc1cccc(NC(=O)Cn2nnc(C(=O)Nc3ccc(F)c(Cl)c3)c2N)c1` it was 16.8%; in that of `CC(=O)Nc1ccccc1OCC(=O)NCC(F)(F)F`, 26.5%; in that of `CS(=O)(=O)N(CC(=O)NCCSCc1ccccc1)c1ccccc1F`, 2.39%.
As to `O=C(NCC1CCCO1)/C(=C\c1ccccc1)NC(=O)c1ccccc1` (stereo not drawn), the “hERG current change (%, negative = inhibition) at 10uM” value is on record as -8.85%.
In the case of `Cc1ccc(S(=O)(=O)NNC(=O)Nc2ccc(C)c(C)c2)c(C)c1` it was -24.9%; in that of `CC(C)Oc1ccc(C(=O)Nc2nnc(SCC(=O)N3CCOCC3)s2)cc1`, 1.12%.
For `CCCCN(CCCC)Cc1ccc(C(=O)NNC(=O)Nc2ccc(F)cc2)o1`, the “hERG current change (%, negative = inhibition) at 10uM” value is -30%.
As to `CCCCOC(=O)Nc1ccc(N(C)C)cc1`, the “hERG current change (%, negative = inhibition) at 10uM” value was determined as 0.397%.
As to `Cc1cc(C(=O)COc2ccc(F)cc2Br)c(C)n1C`, the “hERG current change (%, negative = inhibition) at 10uM” value is reported as 8.27%.
